Experimental data reported in article PMC12136788.
The other results are listed elsewhere or left out.

T1: UNK ZnF1-6 (called full-length) (human, UniProt Q9C0B0 30-357)
T1 sequence: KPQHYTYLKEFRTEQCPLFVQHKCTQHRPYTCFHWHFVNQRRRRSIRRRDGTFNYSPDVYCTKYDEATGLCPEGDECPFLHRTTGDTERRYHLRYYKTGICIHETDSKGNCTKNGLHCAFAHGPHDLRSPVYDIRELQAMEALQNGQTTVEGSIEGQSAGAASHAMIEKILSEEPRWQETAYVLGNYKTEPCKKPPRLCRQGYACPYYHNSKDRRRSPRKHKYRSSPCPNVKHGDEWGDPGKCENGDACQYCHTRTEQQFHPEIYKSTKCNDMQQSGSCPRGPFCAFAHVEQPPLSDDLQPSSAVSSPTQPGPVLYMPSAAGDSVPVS

B1: chr5:159158860:159158961:-|CDS|ENSG00000145860|msi1|total|mutant (ssRNA)
RNA: GGGAGUUCUACAGUCCGACGAUCCCAGGAGACCUGCCCUCUGUGCCACUGCCAUCUGAAAAACUCCUCCCAGCUUCCAGGAUCCGGAACUGAGCCAGUUCUACAGCCUCAUGCUGGAGCUGAGCAAAACGUCAUGUUUCAGGACAACAGAGGAUUGAGCAUCA
B2: chr12:89590234:89590335:-|3pUTR|ENSG00000070961|msi1|total|mutant (ssRNA)
RNA: GGGAGUUCUACAGUCCGACGAUCUUUGCCUACAAUUUACCUUGUUAAAUAUUGCCGAUAAAUUGCUAAUACUAACCGCCAAACCGAUAACACUAAUGCUUUGUUUAAAAAAACGAAAAAAACAAAACAAAACAAAAAAACAUGCAACAGAGGAUUGAGCAUCA
B3: chr11:7467339:7467451:+|3pUTR|ENSG00000170743|unk|total|mutant (ssRNA)
RNA: GGGAGUUCUACAGUCCGACGAUCCCAAGAGAAUACCAAGACAAGCAGGCUGUUCCCUGGAAAAAAUCUAAUGCAAGGAGGGCCCGUUCACAGCAAAUUCACUGCCUCCUCCCAUGCACGUGGCCGAGAGUACCAGUAUCAACACAACAGAGGAUUGAGCAUCA
B4: chr4:99420532:99420793:-|CDS|ENSG00000196344|control|control|control (ssRNA)
RNA: GGGAGUUCUACAGUCCGACGAUCUGCAUCUAGGAUCAUUGGGAUUGACCUCAACAAAGACAAAUUUGAGAAGGCCAUGGCUGUAGGUGCCACUGAGUGUAUCAGUCCCAAGGACUCUACCAAACCCAUCAGUGAGGUGCUGUCCAACAGAGGAUUGAGCAUCA
B5: chr1:154207159:154207278:-|3pUTR|ENSG00000143612|msi1_unk|total|mutant (ssRNA)
RNA: GGGAGUUCUACAGUCCGACGAUCUUCCCCAACCCUUCCUUAUGAGCAUUUUCCGAACAUUGGCUAAGACUAUUUUCCCCCAGCCGCGCUUUUUUCUGGAUUUGCAUUCAGGUGUUAUUCUUAAUGUUUCUGUCAAAGCUUCUUCAACAGAGGAUUGAGCAUCA
B6: chrX:30854639:30854752:-|CDS|ENSG00000157625|unk|total|mutant (ssRNA)
RNA: GGGAGUUCUACAGUCCGACGAUCUUCAGCUCUCCACAGCAUCAAGUGCAACCUUCCCAGUUGGGCCACAUCUUUAUGCCACCCCGUCCUUCAACUACUCCACCCCAUCCAUAUCAACAAGGACCUCCCCGCUAUCAGAAACAGCAACAGAGGAUUGAGCAUCA
B7: ENSG00000139116:stop:overlap|stop_codon|ENSG00000139116|stop_codon|NA|stop_codon (ssRNA)
RNA: GGGAGUUCUACAGUCCGACGAUCAUGCUUUACUAGGCCAUGCUUUACAAGAUCUAGAUAGCGUACCAUUAGGUAAGUAUGUUUAGCUUUCUGUGUAUCCUACAGCUGCAUGAAUUACUAAUUGUUCAUGUACACUAAUUGUGGCAACAGAGGAUUGAGCAUCA
B8: chr1:193013303:193013404:-|3pUTR|ENSG00000116750|unk|total|mutant (ssRNA)
RNA: GGGAGUUCUACAGUCCGACGAUCAAACCACUCCCGCUAUUUGAAGAGGAAUGCAGAUUUAUAUUGGGAGUUUUGAAACUACACCGUUUCUUACAAAAUCAUUGGAAGGUUUGGAGGAGCGGUUUCAAGCUUAAGUCUCCAGAGCAACAGAGGAUUGAGCAUCA
B9: chr3:107805913:107806014:+|3pUTR|ENSG00000114439|msi1_unk|total|mutant (ssRNA)
RNA: GGGAGUUCUACAGUCCGACGAUCUACAUGGAGAUUUAAGUUUAAGAUGGUUUAUAUAACCGGUUAUACCUACAUUUAUAUUGCCGAAUAAAUAUUAAAAAGCCUGUUCCAGAGACUCCCAAGCAGCCUGGGCAGGCAGAUGUACAACAGAGGAUUGAGCAUCA
B10: chr5:55424853:55425205:-|three_prime_utr|ENSG00000067113|control|control|control (ssRNA)
RNA: GGGAGUUCUACAGUCCGACGAUCCAAGCCUUUAAAGACUUCUGCUGCUGCUAUGCCUCUUGGAUGCACACUUUGUGUGUACAUAGUUACCUUUAACUCAGUGGUUAUCUAAUAGCUCUAAACUCAUUAAAAAAACUCCAAGCCCAACAGAGGAUUGAGCAUCA
B11: chr15:49134392:49134529:-|CDS|ENSG00000166200|unk|total|mutant (ssRNA)
RNA: GGGAGUUCUACAGUCCGACGAUCAUAUUUGCUUUCCCCGACUGAUGAUGGAGAAGAUGAUCUGAAAAAAGGUACACAGUUAUCCGAAAUAUAUGCUUUGGAAAUUCAAAUGUACACAGCACAGAAAAAUAACAAAAAACUUAACAACAGAGGAUUGAGCAUCA
B12: chr11:130877263:130877364:-|3pUTR|ENSG00000120451|msi1|total|mutant (ssRNA)
RNA: GGGAGUUCUACAGUCCGACGAUCCAGUCCUUUAACAACACCAGCAUGAAGGCAAAGGUGUUUUGUCAGACUGCAACAUCUAUCCGAAAGGCAAGGCAACUGGGAAUUGCUGGAGAAGGAUAAAUCAGGAGGAAUUGCUGGCCGCAACAGAGGAUUGAGCAUCA
B13: chr1:150960872:150960973:+|CDS|ENSG00000143379|unk|total|mutant (ssRNA)
RNA: GGGAGUUCUACAGUCCGACGAUCGGACUCCCACCCCCCAGAUCUUGGACCCCCACAUAUUCCUGUUCCUCCCUCAAUCCCUGCCGGUGGCUGCAAUCCACCUUCCUCCGAAGAGACACCCAAGAACAAGGUGGCCUCAUGGUUCAACAGAGGAUUGAGCAUCA
B14: chrX:48578139:48578249:+|3pUTR|ENSG00000102317|msi1_unk|total|mutant (ssRNA)
RNA: GGGAGUUCUACAGUCCGACGAUCGUAUCAAGAACAUGAUUAUCCAGCGGUAUUUUCUAAUUCAGAUCAUCAAACUGAUUAUACCGAAGAGUUGGCUUUAAAAUGUUUGCAAAUGUCUUUUUUUUUUUAAUACUGGAAGAAAAACAACAGAGGAUUGAGCAUCA
B15: chr15:34751031:34752477:-|three_prime_utr|ENSG00000159248|control|control|control (ssRNA)
RNA: GGGAGUUCUACAGUCCGACGAUCAUGACUGCUCAGACGUGGCUGUAUCCACCCUCAUUUAUGUGACCCUCACCAUUAAGAUGUAGGAUAAGACUGGAUAAAAGAAGAUUUUGCACCAAUGGGAAAGGAGGAAAAGUGGACCCACAACAGAGGAUUGAGCAUCA
B16: chr8:140515610:140515764:+|3pUTR|ENSG00000104472|unk|total|mutant (ssRNA)
RNA: GGGAGUUCUACAGUCCGACGAUCUUUUGGAAUCAGUUCUUAUAAACAGCUCGAUUCAGUUUCCGCUAAAUUUACCGUUCCGGCCGUAUGUUACAUUUGAAUUUUUGUCUUAAGAAAAGUUGACUGUUCAGAUAUUUUUCUACUCAACAGAGGAUUGAGCAUCA
B17: chr2:32415436:32415554:+|CDS|ENSG00000115760|unk|FALSE|unique (ssRNA)
RNA: GGGAGUUCUACAGUCCGACGAUCUGGGACUUUGGUUCAGUGCUUGAGGCUGCCAAAGUUUGCAGAGGAGGAGAAUCUUUGUAUAGACUCAAUAACUCCUUGUGCUGACGGAAUUCAUUUGUUGGUAGGACUGCGGACAUGCCCCAACAGAGGAUUGAGCAUCA
B18: chr2:197486603:197486717:-|3pUTR|ENSG00000144381|unk|total|mutant (ssRNA)
RNA: GGGAGUUCUACAGUCCGACGAUCCCACCAGAUGAGAAGUUAAGCAGCCUUUCUGUGGAGAGUGAGAAUAAUUGUGUACAAAGCCGAGAAGUAUCCAAUUAUGUGACAACCUUUGUGUAAUAAAAAUUUGUUUAAAGUUAAUAACAACAGAGGAUUGAGCAUCA
B19: chr17:57106211:57106324:+|CDS|ENSG00000121057|unk|total|mutant (ssRNA)
RNA: GGGAGUUCUACAGUCCGACGAUCUCAUCCCAGGUGGUGGGGCCAGUGCAGGAGGAAGAGUAUGCCGCAGAGAAGUUGCCAAGCCGGUUCAUCGAGUCGGCUCACACAGAGCUGGCAAAGGACGAUGCGGCGCCAGCACCCCCACAACAGAGGAUUGAGCAUCA
B20: chr6:31137533:31137950:-|three_prime_utr|ENSG00000204538|control|control|control (ssRNA)
RNA: GGGAGUUCUACAGUCCGACGAUCGCAUCUCCAGGCACCCACGCCCUCUCCACCCUCUGAUUCCCCGUGAAUUCUUCCCAAUUUAGCCUGUCUCCUUAAACCUCUUCCUCAUUCCCUCGGUUUUAUUCUGAACCCGUAAGGUGGCAACAGAGGAUUGAGCAUCA
B21: chr9:134030564:134030586:-|3pUTR|ENSG00000169925|msi1_unk|FALSE|overlapping (ssRNA)
RNA: GGGAGUUCUACAGUCCGACGAUCCCUCUGACAGUCUUUUGGGAAAGAGUAACACCCACAUACAGAAUUUGUCACAUCCAGAGUAGCACUGUUCCUUAAUACUGGCAUAAUGCUUCCAGGAAGUUUUUCUUUUUUAUAUUUAAACAACAGAGGAUUGAGCAUCA
B22: chr14:100537146:100537968:-|three_prime_utr|ENSG00000183092|control|control|control (ssRNA)
RNA: GGGAGUUCUACAGUCCGACGAUCGCCCCGGCCAACAACGAGGAGUCUGUUCCUCCCCGCACCUCCUCUCCUCCCCAGCCCUGUAGGCCUGAGGGGAGGGUCCCCCACACCACGGUGUCCACCCGGCCCCGGCCCGUGGAACUCCAACAGAGGAUUGAGCAUCA

target: T1, UNK ZnF1-6 (called full-length); assay: nsRBNS (natural sequence RNA bind-n-seq); RBNS binding buffer (assumed for nsRBNS): 25 mM Tris pH 7.5, 150 mM KCl, 3 mM MgCl2, 0.01% Triton X-100, 500 ug/ml BSA, 20 U/ml SUPERase-In, 4 C; UNK is unkempt and MSI1 is Musashi-1; names of the RNAs are library labels; protein concentration not given here; high values mean tight binding

Row | Binder | binding signal [enrichment R]
1 | B1 | 0.64
2 | B2 | 0.363
3 | B3 | 0.705
4 | B4 | 0.543
5 | B5 | 0.479
6 | B6 | 0.998
7 | B7 | 0.692
8 | B8 | 0.619
9 | B9 | 0.499
10 | B10 | 0.725
11 | B11 | 0.45
12 | B12 | 0.663
13 | B13 | 0.752
14 | B14 | 0.446
15 | B15 | 0.717
16 | B16 | 0.344
17 | B17 | 0.624
18 | B18 | 0.897
19 | B19 | 0.814
20 | B20 | 1.63
21 | B21 | 0.595
22 | B22 | 0.879
